{"source": "PubChem BioAssay AID485364", "about": "(National Center for Advancing Translational Sciences (NCATS), 2010)", "note": "Screen size: about 360,000 compounds; about 11,000 (3.1%) were called active. Inconclusive results, whose numbers are uncertain, are shown with a selection of clear calls. Calls come from the whole dose curve; as a rule, active = well fitted inhibition curve with a large enough effect; inconclusive = small, poorly fitted or top-dose-only effect; inactive = no such curve, though single readings can be large or run the other way. Potencies of inconclusive entries are left out as doubtful fits. Potency is the fitted concentration of half-maximal effect; tags give direction and shape of the fitted curve.", "data": [{"molecular_target": "Schistosoma mansoni thioredoxin glutathione reductase (TGR) (UniProt Q962Y6)", "experiment": "qHTS Assay for the Inhibitors of Schistosoma Mansoni Peroxiredoxins; note: nearly all actives have a fitted effect of over 60% in size", "settings": "purified TGR, DTNB reduction, TNB absorbance 405 nm; series mostly up to 114 µM", "outline": "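TGR 20 nM + NADPH 100 uM (dispensed conc.), cpd preinc 15 min RT; start with NADPH (500 uM addition) then DTNB (15 mM addition). Kinetic TNB absorbance, 405 nm filter. Four-parameter Hill fit across titration.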", "values": [{"smiles": "CCC(C)(C)NC(=O)C(c1ccco1)N(C(=O)CNC(=O)c1cccs1)c1cccnc1", "note": "(configuration not stated)", "Potency": "inconclusive [inhibitor, partial curve]"}, {"smiles": "Cc1ccc(Cl)cc1-n1nnc(-c2nc(-c3ccc4c(c3)OCO4)no2)c1C", "Potency": "inactive"}, {"smiles": "COc1cccc(CN2CCNC(=O)C2CC(=O)NCCc2ccccn2)c1", "note": "(configuration not stated)", "Potency": "inconclusive [inhibitor, partial curve]"}, {"smiles": "CSc1ccc(CCNC(=O)CCCn2c(=O)c3cccn3c3ccccc32)cc1", "Potency": "inactive"}, {"smiles": "CCOc1ccc(C(=O)Nc2cc3c(cc2N2CCCC2)n(C)c(=O)c(=O)n3C)cc1OCC", "Potency": "inconclusive [inhibitor, partial curve]"}, {"smiles": "COc1ccc(CCNC(=O)Cn2c(=O)[nH]c3ccsc3c2=O)cc1OC", "Potency": "inactive"}, {"smiles": "CCCOc1ccc(C(=O)Nc2cc3c(cc2N2CCCCC2)n(C)c(=O)n3C)cc1", "Potency": "inactive"}, {"smiles": "O=C(Nc1nnc(Cc2c[nH]c3ccccc23)s1)c1ccc(Cl)cc1Cl", "Potency": "inactive"}, {"smiles": "COc1ccc(CCNC(=S)NC(=O)c2ccccc2)cc1C", "Potency": "active: 3.55 µM"}, {"smiles": "Cc1ccc2oc(=O)c3cnn(CC(=O)NC4CCN(Cc5ccccc5)CC4)c3c2c1", "Potency": "inconclusive [inhibitor, partial curve]"}, {"smiles": "N#CCSc1nc2ccc(N3CCCCC3)cc2c(=O)n1Cc1ccccc1", "Potency": "inconclusive [inhibitor, partial curve, poor fit]"}, {"smiles": "CNC(=O)c1c(NC(=O)/C=C/c2ccccc2)sc2c1CCC2", "Potency": "active: 35.5 µM"}, {"smiles": "O=C(Nc1ncccn1)c1ccc([N+](=O)[O-])o1", "Potency": "inconclusive [inhibitor, partial curve]"}, {"smiles": "CCOc1cc(/C=C(/C#N)C(=O)Nc2ccc(O)cc2)cc(Br)c1O", "Potency": "inconclusive [inhibitor, partial curve]"}, {"smiles": "O=C(Nc1ccc(Cl)cc1)Nc1nnc(SCc2ccc(Cl)cc2)s1", "Potency": "inconclusive [inhibitor, single point]"}, {"smiles": "COc1ccc(CCNC(=O)C(C)n2nc(C)c3sc4ccccc4c3c2=O)c(OC)c1", "note": "(configuration not stated)", "Potency": "inconclusive [inhibitor, partial curve]"}, {"smiles": "CCC(c1nnnn1Cc1ccc(OC)cc1)N(CCCO)Cc1cc2cc3c(cc2[nH]c1=O)OCO3", "note": "(configuration not stated)", "Potency": "inconclusive [inhibitor, single point]"}, {"smiles": "C=CCN(CC=C)c1nc2ccccc2nc1C(C#N)C(=O)OC(C)C", "note": "(configuration not stated)", "Potency": "active: 28.2 µM"}, {"smiles": "CCOC(=O)N1CCN(C(=O)CS(=O)Cc2nc(-c3ccc(C)cc3)oc2C)CC1", "note": "(configuration not stated)", "Potency": "inconclusive [inhibitor, partial curve, poor fit]"}, {"smiles": "Nn1c(SCc2ccccc2F)nnc1-c1cccnc1", "Potency": "inactive"}, {"smiles": "COc1ccc(CC(=O)Nc2ccc(C#N)c(Cl)c2)cc1S(=O)(=O)N1CCOCC1", "Potency": "active: 12.6 µM"}, {"smiles": "COc1cccc(C(=O)N(Cc2nc(-c3ccc(Cl)cc3)no2)C(C)C)c1OC", "Potency": "inactive"}, {"smiles": "O=C1NC(=O)N(Cc2ccco2)C(=O)/C1=C/c1cccn1CCOc1ccccc1Cl", "Potency": "inconclusive [inhibitor, full curve, poor fit]"}, {"smiles": "CC(C)C1C(C#N)=C(N)Oc2n[nH]c(-c3ccccc3)c21", "note": "(configuration not stated)", "Potency": "inactive"}, {"smiles": "O=C(COc1ccc(/C=C\\[N+](=O)[O-])cc1)N1CCOCC1", "Potency": "active: 22.4 µM"}, {"smiles": "O=C1CSC2=NCN(c3ccc4c(c3)OCO4)CN12", "Potency": "inconclusive [inhibitor, full curve, poor fit]"}, {"smiles": "COc1cccc(=O)c2c(C)n(C)c(C)c12", "Potency": "inconclusive [inhibitor, partial curve]"}, {"smiles": "CCC1Oc2ccccc2N(CC(=O)NCCN2CCc3ccccc3C2)C1=O", "note": "(configuration not stated)", "Potency": "inactive"}, {"smiles": "Cc1ccc(S(=O)(=O)NCC(=O)N(CCc2ccccc2)CC(=O)NCc2ccco2)cc1", "Potency": "active: 35.5 µM"}, {"smiles": "CCCNC(=O)CSCc1nc(-c2ccc(SC)cc2)oc1C", "Potency": "inconclusive [inhibitor, partial curve]"}, {"smiles": "COCCn1c(C)cc(O)c(C(c2ccccc2)N2CCC(C)CC2)c1=O", "note": "(configuration not stated)", "Potency": "active: 22.4 µM"}, {"smiles": "O=C(Cc1ccc(Br)cc1)N/N=C/c1ccc(-c2cccc(C(=O)O)c2)o1", "Potency": "inconclusive [inhibitor, partial curve]"}, {"smiles": "Cc1ccccc1OCC(=O)Nc1ccc(C(=O)Nc2ccccc2C(=O)O)cc1", "Potency": "inconclusive [inhibitor, partial curve]"}, {"smiles": "CC(/C=N/n1c(-c2cccnc2)n[nH]c1=S)=C\\c1ccco1", "Potency": "active: 39.8 µM"}, {"smiles": "O=C(CN(CC1CCCO1)C(=O)CNS(=O)(=O)c1ccc(F)cc1)NCc1ccc(F)cc1", "note": "(configuration not stated)", "Potency": "inactive"}, {"smiles": "Cn1c2ccccc2c(=O)c2c(=O)n(Cc3ccco3)c(-c3ccc(Cl)cc3Cl)nc21", "Potency": "active: 14.1 µM"}, {"smiles": "CC(=O)OCC(=O)Nc1ccc(C(C)=O)cc1", "Potency": "inconclusive [inhibitor, partial curve]"}, {"smiles": "CCC(=O)Nc1cc(SCCO)cc([N+](=O)[O-])c1", "Potency": "inactive"}, {"smiles": "O=C(O)CCC(=O)N1N=C(c2ccc(Br)cc2)CC1c1ccc(Br)cc1", "note": "(configuration not stated)", "Potency": "inconclusive [inhibitor, single point]"}, {"smiles": "CCCOc1ccc(/C=C/C(=O)Nc2sc(C)c(C)c2C(=O)OCC)cc1OC", "Potency": "inactive"}, {"smiles": "Cn1nc(-c2ccccc2)cc1NC(=O)Nc1ccccc1F", "Potency": "inactive"}, {"smiles": "CC(=O)OCC1=C(C(=O)O)N2C(=O)C(NC(=O)C(C)Cn3nc(C)c(Cl)c3C)C2SC1", "note": "(configuration not stated)", "Potency": "active: 28.2 µM"}, {"smiles": "CCCC(=O)Nc1ccc2c(c1)nc(CN1CCN(C(=O)OCC)CC1)n2C(C)C", "Potency": "inactive"}, {"smiles": "O=C(N[C@@H](Cc1ccc(O)cc1)C(=O)O)c1cccnc1", "Potency": "active: 50.1 µM"}, {"smiles": "COc1ccc(CNC(=O)C(c2ccc(C)o2)N(Cc2cccs2)C(=O)Cc2cccs2)cc1", "note": "(configuration not stated)", "Potency": "inconclusive [inhibitor, partial curve]"}, {"smiles": "CCN(CC)CCNC(CC(=O)Nc1ccc(Cl)cc1Cl)C(=O)O", "note": "(configuration not stated)", "Potency": "inconclusive [inhibitor, partial curve]"}, {"smiles": "O=C(CCl)N(CCCNC(=O)C(F)(F)F)c1ccc([N+](=O)[O-])cc1", "Potency": "active: 2.82 µM"}]}]}
